The record followed here is article PMC12040169 (PLOS Biology, 2025).

The other results are listed elsewhere or left out.

The test system of the experiment is T1, C. trachomatis L2/434/Bu expressing GFP (CTL2-GFP).
T1 construct: L2/434/Bu GFP intracellular growth in HeLa cells
Details: species or system HeLa; C. trachomatis total inclusion area by high-content imaging, normalised to DMSO. As to conditions: total inclusion area; 28.5 h, 10 µM; inhibitor. The procedure, abridged:
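Imaging read-out: GFP inclusions and Hoechst nuclei captured by high-content imaging after fixation. Inclusion area/number = chlamydial growth; nuclei count = host cell viability. MIC calculated per earlier method.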
Regarding `COc1cccc(CNC(=O)c2cn[nH]c2-c2cccc(C)c2)c1` [CBK288056], the “% of control remaining” value is on record as 89.3221.

Consider `Cc1nc(N2CCOCC2)[nH]c(=O)c1CCC(=O)Nc1ccccc1F` [CBK305003], for which the “% of control remaining” value turned out to be 109.482.

`CN1CCN(CC(=O)Nc2ccc([N+](=O)[O-])cc2C(=O)c2ccccc2)CC1` [CBK265772]: the “% of control remaining” value is on record as 117.618.

In the case of `O=C(O)CCC(=O)NCCCc1ccccc1` [CBK265465], the “% of control remaining” value came to 58.788.

With `Cc1ccccc1C(=O)N1CCN(S(=O)(=O)c2sc(C(=O)O)c(C)c2C(=O)O)CC1` [CBK297146], the “% of control remaining” value is given as 102.14.

For the compound `Nc1nc2cccnc2cc1-c1ccsc1` [CBK081214], the “% of control remaining” value was found to be 117.677.

Take `CC(C)(Oc1ccc(Cl)cc1)C(=O)Nc1ccc(CN2CCOCC2)cc1` [CBK269940]: the “% of control remaining” value is recorded as 95.2176.

In the case of `O=C(Cn1nc(-c2ccco2)ccc1=O)Nc1ccccn1` [CBK287985], the “% of control remaining” value is reported as 124.82.

`O=C(CCN1C(=O)C2C3CCC(C3)C2C1=O)OCC(=O)c1ccc(Cl)c([N+](=O)[O-])c1` (stereo not shown) [CBK264124]: the “% of control remaining” value is 102.548.

As for `COc1ccc(OC)c(CCO)c1` [CBK003033], the “% of control remaining” value is reported as 95.4366.

Turning to `O=C1CC(N2CCN(CCc3ccncc3)CC2)C(=O)N1c1ccc(Cl)cc1` (stereo not shown) [CBK270078], the “% of control remaining” value is 85.4067.

In the case of `CN1CCN(C(=O)c2ccc(-c3cnc4[nH]c(=O)n(CCN5CCOCC5)c4n3)cc2)CC1` [CBK064800], the “% of control remaining” value amounted to 102.599.

As for `COc1ncc(-c2ccc(Nc3ccc(N4CCOCC4)cc3)nc2)c(OC)n1` [CBK036988], the “% of control remaining” value stood at 132.054.

Turning to `O=C(Cn1cnnn1)NC1CCCC1` [CBK200372], the “% of control remaining” value stood at 84.6892.

Take `Cc1ccc(NC(=O)CN2C(=O)N/C(=C\c3cc(Br)cc(Cl)c3O)C2=O)cc1` [CBK265018]: the “% of control remaining” value is given as 117.445.

With `CC(C)[C@H](CO)NC(=O)c1cnc(-c2ccccc2)c(-c2ccncc2)c1` [CBK036691], the “% of control remaining” value was found to be 111.011.

For `O=[N+]([O-])c1ccc(CN2CCN(Cc3cccnc3)CC2)cc1` [CBK263161], the “% of control remaining” value is recorded as 95.4637.

As to `CSc1nc(N)nc2sc3c(O)cc(=O)[nH]c3c12` [CBK267457], the “% of control remaining” value was 114.479.

On to `CCC(CCC(=O)Nc1ccccc1Cl)C(=O)O` (stereo not shown) [CBK286767], for which the “% of control remaining” value was determined as 133.166.

For the compound `Nc1ccc(Sc2nccnc2N2CCCC2)cc1` [CBK089520], the “% of control remaining” value is given as 105.566.

For the compound `COc1ccc(OC)c(NC(=O)c2c[nH]c(=O)n(-c3ccc(F)cc3)c2=O)c1` [CBK287552], the “% of control remaining” value is 85.4247.

As to `Cc1ccc(C(=O)c2cccc(N3C(=O)c4ccc(C(=O)O)cc4C3=O)c2)cc1C` [CBK286994], the “% of control remaining” value was found to be 87.1575.

Regarding `O=C(NCc1nnc(-c2cccs2)o1)c1cccc(-c2ccc(F)cc2)c1` [CBK286296], the “% of control remaining” value is recorded as 100.192.

As for `Cc1sc(NC(=O)C2C3C=CC(C3)C2C(=O)O)c(C(N)=O)c1C` (stereo not shown) [CBK263685], the “% of control remaining” value turned out to be 111.833.

`CC1(C(=O)NC(c2ccncc2)c2ccc(Cl)cc2)CCCO1` (stereo not shown) [CBK282710]: the “% of control remaining” value is listed as 139.368.

On to `COc1cc(Nc2nc(-c3cccc4ccccc34)cn3ccnc23)cc(OC)c1OC` [CBK036608], for which the “% of control remaining” value came to 63.869.

For `Cc1cc(C[C@@H]2CCC[C@H]2NCc2cccnc2)on1` [CBK284933], the “% of control remaining” value stood at 78.9987.

As for `COC(=O)[C@H]1CN(C(=O)c2ccccn2)C[C@@H]1c1ccc(F)cc1` [CBK283727], the “% of control remaining” value is listed as 59.2907.

`CC(C)NC(=O)Cn1c(-c2ccc(F)cc2)cc2cccnc21` [CBK284862]: the “% of control remaining” value came out at 101.478.

Turning to `CCOc1ccc(C(C)(N)C(=O)O)cc1` (stereo not shown) [CBK261362], the “% of control remaining” value is listed as 88.735.

For `COc1ccc2nc(NC(=O)c3cccc(N4C(=O)CCC4=O)c3)sc2c1` [CBK287351], the “% of control remaining” value came out at 112.352.

As for `Cc1nc(-c2ccccc2)ccc1C(=O)Nc1nc(CC(N)=O)cs1` [CBK295195], the “% of control remaining” value is given as 93.5447.

For `O=C(O)CCC(=O)Nc1ccc2c(c1)Cc1ccccc1-2` [CBK286611], the “% of control remaining” value was determined as 106.701.

Regarding `O=C(COc1ccc(-c2cc(-c3ccccc3)c3cc(Cl)ccc3n2)cc1)N/N=C/c1ccc2ncccc2c1` [CBK263365], the “% of control remaining” value was found to be 100.727.

Take `O=C(Nc1ccc2c(c1)OCO2)c1ccc(-c2ccccc2)nc1NCCc1ccccn1` [CBK076574]: the “% of control remaining” value stood at 91.5424.

As for `COc1ccc(-c2c[nH]c([C@@H]3COCCN3Cc3ccccc3O)n2)cc1` [CBK289296], the “% of control remaining” value stood at 96.4983.

Consider `CC(C)NC(=O)c1sc2ccccc2c1C1CCN(S(=O)(=O)c2ccccc2)C1` (stereo not shown) [CBK285927], for which the “% of control remaining” value is recorded as 92.2249.

With `CC(C)(C)C1=CC2=NC3(CCCCCC3)[C@@H]3C[C@@H](O)[C@@H](O)[C@@H]3N2O1` [CBK303252], the “% of control remaining” value was determined as 66.8253.

Regarding `O=C1c2ccccc2C(=O)N1CCCSc1nnc(-c2ccncc2)n1-c1ccccc1` [CBK263419], the “% of control remaining” value is reported as 85.7672.

With `O=C(/C=C/c1ccc(-c2ccccc2[N+](=O)[O-])o1)Nc1ccc(-c2nc3ncccc3o2)cc1` [CBK263434], the “% of control remaining” value was found to be 81.4529.

On to `C=CCNCc1cc2c(C)nn(-c3ccccc3)c2[nH]c1=O` [CBK282898], for which the “% of control remaining” value is 97.6781.

Turning to `Nc1ncnc2c1nc(N)n2[C@H]1C[C@@H](O)[C@@H](CO)O1` [CBK201222], the “% of control remaining” value is listed as 77.4939.

For the compound `OCc1ccnc2ccccc12` [CBK001746], the “% of control remaining” value came out at 69.5328.

For `CC[C@H]1CN(C(=O)NC(C)C)CC[C@H]1CC(=O)NCc1ccc2c(c1)OCO2` [CBK288775], the “% of control remaining” value is 116.82.

In the case of `O=C(c1cccc(F)c1)N1CCC(c2n[nH]c3ncccc23)CC1` [CBK284907], the “% of control remaining” value was 78.2855.

Take `CC(=O)Nc1ccc(CNC(=O)CN(C)CC2CCCCO2)cc1` (stereo not shown) [CBK306567]: the “% of control remaining” value stood at 57.3603.

With `O=C(c1ccco1)N1CCc2cc(-c3cn4c(n3)CCCC4)ccc21` [CBK282893], the “% of control remaining” value was found to be 113.863.

For the compound `Cc1cc(O)ccc1-c1cncc(-c2ccc(O)cc2C)n1` [CBK115689], the “% of control remaining” value was 102.063.

Consider `NC(=O)c1ccc(NC(=O)CSc2nnc(-c3ccncc3)n2-c2ccc(Br)cc2)cc1` [CBK266202], for which the “% of control remaining” value stood at 110.563.

Turning to `CN(Cc1c(F)cccc1Cl)C(=O)CSc1nc(CC(=O)O)cs1` [CBK296708], the “% of control remaining” value amounted to 99.8762.

Consider `Cc1c(C(c2ccc(C(=O)O)cc2)c2c(C)n(C)n(-c3ccccc3)c2=O)c(=O)n(-c2ccccc2)n1C` [CBK261691], for which the “% of control remaining” value was determined as 93.2866.

For the compound `CC(C)c1ccc(NC(=O)CSc2nnc(CN3CCOCC3)n2C)cc1` [CBK268235], the “% of control remaining” value was 88.3824.

Take `CCOC(=O)CC(=O)CSc1nc2nc(C)cc(C)n2n1` [CBK268469]: the “% of control remaining” value was 112.434.

As for `O=C(O)CCSc1nnc(-c2cccnc2)n1-c1ccccc1` [CBK268734], the “% of control remaining” value is given as 99.5513.

As to `CC(Oc1ccccc1)c1nnc(SCC(=O)Nc2ccc(Br)c(Cl)c2)n1C` (stereo not shown) [CBK266299], the “% of control remaining” value is listed as 105.28.

For `COc1c(I)cc(Br)cc1/C=N/NC(=O)CC#N` [CBK025764], the “% of control remaining” value is given as 87.0342.

Turning to `CC(=O)OC1CCN(C(=O)c2cccc(C#N)c2)CC1` [CBK304648], the “% of control remaining” value is listed as 109.99.

As for `COc1ccnc(N2C[C@@H]3OCC(=O)N(Cc4ccccc4)[C@@H]3C2)n1` [CBK289666], the “% of control remaining” value came to 89.1418.

Regarding `CC(C)Nc1cc(SCCc2ccccn2)ncn1` [CBK105617], the “% of control remaining” value is listed as 71.5995.

Regarding `CCOC(=O)C1=C(CSc2nccn2C)NC(=O)NC1c1ccc2c(c1)OCO2` (stereo not shown) [CBK268746], the “% of control remaining” value is 85.2469.

For the compound `CCN(CC)CC1CCCN(C(=O)CCn2ccc3ccncc32)C1` (stereo not shown) [CBK285174], the “% of control remaining” value was determined as 99.7959.

For `Cc1cc(N2CCN(CC(=O)c3ccc(Cl)cc3)CC2)c2ccccc2n1` [CBK066868], the “% of control remaining” value was 110.285.

On to `COc1cncc(-c2cnc3[nH]c(=O)n(C4CCCCC4)c3n2)c1` [CBK064230], for which the “% of control remaining” value turned out to be 58.8112.

As for `Cc1ccc(NC(=O)CSc2nnc3c4c5c(sc4nc(-n4nc(C)cc4C)n23)COC(C)(C)C5)cc1` [CBK268675], the “% of control remaining” value was 114.585.

Consider `COc1ccc(C(=O)O)cc1S(=O)(=O)Nc1c(-c2cccs2)nc2cc(C)ccn12` [CBK297484], for which the “% of control remaining” value was 89.8516.

In the case of `Cn1cc(CN(C(=O)c2nc(N)nc3c2CCCC3)C2CC2)cn1` [CBK307352], the “% of control remaining” value came out at 58.1563.

`c1cc(CCNc2nccn3ccnc23)ccn1` [CBK037976]: the “% of control remaining” value was determined as 132.755.

Consider `CC[C@H](Cn1c(=O)oc2ccccc21)NC(=O)c1cccs1` [CBK284540], for which the “% of control remaining” value is listed as 86.7243.

On to `O=C(Cc1ccc2c(c1)CCCO2)NCc1ccccc1-n1ccnc1` [CBK281463], for which the “% of control remaining” value is given as 109.203.

Consider `CCC(C)NC(=O)Cn1c(C2CCNCC2)cc2cccnc21` (stereo not shown) [CBK285003], for which the “% of control remaining” value was 88.4.

In the case of `CN(C(=O)C12CCOCC1CN(c1nccnc1C#N)C2)C1CCCC1` (stereo not shown) [CBK304244], the “% of control remaining” value was determined as 115.654.

As for `CC(C)CC(C(=O)Nc1ccc(C2CCCC2)cc1)N1CCN(C)CC1` (stereo not shown) [CBK024386C], the “% of control remaining” value is given as 68.1085.

`O=C(Nc1cccc2c(NC(=O)N3CCCCC3)cccc12)N1CCCCC1` [CBK010775]: the “% of control remaining” value came out at 13.0421.

For the compound `Cc1nc2ccccn2c1-c1csc(Nc2cccc(C(=O)O)c2)n1` [CBK263303B], the “% of control remaining” value is on record as 42.6972.

`CC(NC(=O)CS(=O)(=O)Cc1ccc(C#N)cc1)c1ccc(C#N)cc1` (stereo not shown) [CBK297791]: the “% of control remaining” value is reported as 83.2089.

On to `CCC(=O)Nc1ccc2oc(-c3cccc(C)c3)nc2c1` [CBK263065], for which the “% of control remaining” value came to 112.794.

For `COCCCn1c(=O)[nH]c2ncc(-c3cccc(CO)c3)nc21` [CBK065104], the “% of control remaining” value stood at 108.894.

Take `CN(CCN(C)/N=C/c1cccc2ccccc12)/N=C/c1cccc2ccccc12` [CBK262153]: the “% of control remaining” value is 99.6288.

As for `CC(N(C)S(=O)(=O)c1ccc(-n2ncc(Cl)c(Cl)c2=O)cc1)C(C)(C)C` (stereo not shown) [CBK304544], the “% of control remaining” value was 40.7031.
